According to the supplement of paper PMC6206098:
± gives the uncertainty stated by the source. The sequences are guide strands of siRNAs; only the seed at positions 2 to 7 varies.

How the values were obtained:
[1] = system: H460; assay: cell viability relative to lipid-only control; higher = less toxic; settings: concentration: 10 nM; 96 h; Homo sapiens
Method: (§1)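 Arrayed screen of 4096 siRNA duplexes, each carrying one of all possible 6mer seeds at guide-strand positions 2-7 in a fixed neutral 19mer scaffold (constant flanks: U at position 1, then ACAUGUAAACCA, plus a 3' AA overhang). The passenger strand is 2'-O-methylated at positions 1-2 so only the guide strand loads into RISC. Duplexes were reverse-transfected at 10 nM with RNAiMAX in triplicate in 384-well plates; viability was read by CellTiter-Glo ATP content 96 h after transfection. Values are % viability normalised to lipid-only wells (HeyA8, H460, M565) or to siNT1 (3LL).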

[2] = system: M565; assay: as above; settings: concentration: 10 nM; 96 h; Mus musculus
Method: as §1

[3] = system: HeyA8; assay: as above; settings: concentration: 10 nM; 96 h; Homo sapiens
Method: as §1

[4] = system: 3LL; assay: cell viability relative to siNT1 control; HeyA8 human ovarian and H460 human lung cancer; M565 mouse liver and 3LL mouse lung cancer; siNT1 is a non-toxic control siRNA; higher = less toxic; settings: concentration: 10 nM; 96 h; Mus musculus;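 further: Luminescence-based viability of cells reverse transfected in 384-well plates with lipid-complexed siRNAs built on a non-toxic 19mer backbone whose passenger strand carries 2′-O-methyl groups at positions 1 and 2, triplicates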
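Wherever cell viability relative to lipid-only control is given: reverse lipid transfection in 384-well plates, in triplicate, of duplexes on a non-toxic 19mer backbone with passenger strand 2′-O-methylated at positions 1 and 2, luminescence viability read-out.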

| Sequence | cell viability [1] | cell viability [2] | cell viability [3] | cell viability [4] |
| --- | --- | --- | --- | --- |
| UAUUGUUACAUGUAAACCAAA | 74.7 ± 3.7% | 79.8 ± 11% | 91.3 ± 12% | 111 ± 15% |
| UAUUUAAACAUGUAAACCAAA | 95.9 ± 3.8% | 99.5 ± 7% | 98 ± 17% | 112 ± 15% |
| UAUUUACACAUGUAAACCAAA | 86.5 ± 3.1% | 101 ± 22% | 97.1 ± 12% | 104 ± 24% |
| UAUUUAGACAUGUAAACCAAA | 84.4 ± 7.2% | 127 ± 26% | 89.1 ± 14% | 108 ± 20% |
| UAUUUAUACAUGUAAACCAAA | 81 ± 6.2% | 82.1 ± 10% | 95.1 ± 10% | 107 ± 16% |
| UAUUUCAACAUGUAAACCAAA | 84.9 ± 5.2% | 76.2 ± 6.2% | 69 ± 3.6% | 67.7 ± 8.4% |
| UAUUUCCACAUGUAAACCAAA | 51.5 ± 1.7% | 34.5 ± 3.8% | 42.4 ± 5% | 10.4 ± 1.6% |
| UAUUUCGACAUGUAAACCAAA | 88.3 ± 13% | 86.9 ± 5.3% | 95.3 ± 14% | 98.4 ± 21% |
| UAUUUCUACAUGUAAACCAAA | 75.1 ± 3.9% | 39.5 ± 3.8% | 52.1 ± 3% | 22.7 ± 2.9% |
| UAUUUGAACAUGUAAACCAAA | 101 ± 11% | 114 ± 12% | 92.1 ± 6.1% | 83.8 ± 14% |
| UAUUUGCACAUGUAAACCAAA | 82.5 ± 10% | 55.9 ± 5.5% | 63.9 ± 5.2% | 39.4 ± 9.7% |
| UAUUUGGACAUGUAAACCAAA | 71.4 ± 8% | 32.3 ± 4.7% | 91.7 ± 6% | 97.3 ± 16% |
| UAUUUGUACAUGUAAACCAAA | 87.8 ± 5% | 85.5 ± 22% | 88.7 ± 17% | 79 ± 7.8% |
| UAUUUUAACAUGUAAACCAAA | 81.5 ± 4.9% | 107 ± 15% | 96.7 ± 10% | 105 ± 23% |
| UAUUUUCACAUGUAAACCAAA | 47.9 ± 2.3% | 65.3 ± 7.7% | 41.5 ± 2.7% | 32.2 ± 15% |
| UAUUUUGACAUGUAAACCAAA | 80.4 ± 8.1% | 106 ± 6.8% | 90.6 ± 9.7% | 109 ± 27% |
| UAUUUUUACAUGUAAACCAAA | 73.6 ± 4.8% | 112 ± 28% | 89.5 ± 14% | 107 ± 21% |
| UCAAAAAACAUGUAAACCAAA | 65.4 ± 4.5% | 78.6 ± 7.7% | 84.3 ± 7.3% | 93.3 ± 11% |
| UCAAAACACAUGUAAACCAAA | 62.5 ± 16% | 84.4 ± 8.1% | 75 ± 8% | 90.9 ± 13% |

| Sequence | cell viability [1] | cell viability [2] | cell viability [3] | cell viability [4] |
| --- | --- | --- | --- | --- |
| UCAAAAGACAUGUAAACCAAA | 64.8 ± 9.3% | 65.2 ± 9.1% | 83.4 ± 3.2% | 86 ± 18% |
| UCAAAAUACAUGUAAACCAAA | 47.5 ± 4.5% | 68.5 ± 10% | 83 ± 12% | 91.2 ± 14% |
| UCAAACAACAUGUAAACCAAA | 67.2 ± 8.9% | 79.1 ± 12% | 79.2 ± 10% | 89.5 ± 15% |
| UCAAACCACAUGUAAACCAAA | 38.4 ± 7.9% | 64.9 ± 7.4% | 42.1 ± 5.5% | 70.9 ± 9.7% |
| UCAAACGACAUGUAAACCAAA | 66.5 ± 14% | 87.5 ± 6.9% | 95.2 ± 8.2% | 97.4 ± 11% |
| UCAAACUACAUGUAAACCAAA | 47.5 ± 6.4% | 80.9 ± 6% | 69 ± 2.5% | 84.6 ± 12% |
| UCAAAGAACAUGUAAACCAAA | 59.7 ± 11% | 73.9 ± 6% | 82.7 ± 10% | 87 ± 17% |
| UCAAAGCACAUGUAAACCAAA | 29.7 ± 4.4% | 14.6 ± 3.1% | 45.2 ± 1.9% | 32.8 ± 14% |
| UCAAAGGACAUGUAAACCAAA | 109 ± 12% | 60.3 ± 7.5% | 79.8 ± 7.7% | 89.4 ± 12% |
| UCAAAGUACAUGUAAACCAAA | 59.9 ± 15% | 41.1 ± 4.3% | 55.4 ± 2.3% | 81.2 ± 14% |
| UCAAAUAACAUGUAAACCAAA | 74.5 ± 7% | 63.8 ± 5.5% | 82.4 ± 6.9% | 90 ± 15% |
| UCAAAUCACAUGUAAACCAAA | 49.4 ± 4.9% | 41.8 ± 6.7% | 66.4 ± 3.5% | 72 ± 11% |
| UCAAAUGACAUGUAAACCAAA | 69 ± 10% | 72.8 ± 12% | 82.9 ± 3.6% | 83.5 ± 7.1% |
| UCAAAUUACAUGUAAACCAAA | 67.1 ± 9% | 60.9 ± 6.5% | 90 ± 6.1% | 100 ± 20% |
| UCAACAAACAUGUAAACCAAA | 79.6 ± 8.2% | 71.5 ± 5.1% | 81.5 ± 8.6% | 90.6 ± 18% |
| UCAACACACAUGUAAACCAAA | 53.3 ± 2.9% | 74.9 ± 6.5% | 75.7 ± 5.8% | 85.7 ± 15% |
| UCAACAGACAUGUAAACCAAA | 56.1 ± 4.2% | 52.9 ± 10% | 83.5 ± 3.1% | 90.4 ± 12% |
| UCAACAUACAUGUAAACCAAA | 75.9 ± 10% | 77.5 ± 12% | 83.3 ± 6.1% | 91.4 ± 22% |
| UCAACCAACAUGUAAACCAAA | 57.7 ± 7.3% | 51.7 ± 7% | 87.1 ± 4.1% | 91.8 ± 14% |

| Sequence | cell viability [1] | cell viability [2] | cell viability [3] | cell viability [4] |
| --- | --- | --- | --- | --- |
| UCAACCCACAUGUAAACCAAA | 44.7 ± 5.4% | 49.4 ± 4.9% | 58.9 ± 3.3% | 49.6 ± 13% |
| UCAACCGACAUGUAAACCAAA | 56.6 ± 3.3% | 62.8 ± 13% | 88 ± 6.5% | 89.1 ± 14% |
| UCAACCUACAUGUAAACCAAA | 60.3 ± 0.68% | 51.9 ± 13% | 79.7 ± 7.6% | 84.2 ± 18% |
| UCAACGAACAUGUAAACCAAA | 62.9 ± 14% | 65.5 ± 7.6% | 84.4 ± 3.5% | 89.7 ± 19% |
| UCAACGCACAUGUAAACCAAA | 74.1 ± 6.3% | 64 ± 6.2% | 56.8 ± 8% | 89.3 ± 16% |
| UCAACGGACAUGUAAACCAAA | 66 ± 5.2% | 77.3 ± 22% | 67.7 ± 4.6% | 101 ± 16% |
| UCAACGUACAUGUAAACCAAA | 57.72 ± 0.37% | 92.6 ± 11% | 77.2 ± 3% | 88.6 ± 8.7% |
| UCAACUAACAUGUAAACCAAA | 68 ± 11% | 68.8 ± 3.9% | 77.5 ± 6.6% | 93.1 ± 16% |
| UCAACUCACAUGUAAACCAAA | 61.1 ± 6.4% | 47.5 ± 11% | 68.9 ± 6.2% | 98.6 ± 12% |
| UCAACUGACAUGUAAACCAAA | 67.2 ± 12% | 67.2 ± 3.5% | 81 ± 1.9% | 94.6 ± 14% |
| UCAACUUACAUGUAAACCAAA | 54 ± 1.7% | 74.4 ± 14% | 90 ± 11% | 93.7 ± 20% |
| UCAAGAAACAUGUAAACCAAA | 58.7 ± 5.6% | 58 ± 4.2% | 85.9 ± 1.6% | 96.3 ± 25% |
| UCAAGACACAUGUAAACCAAA | 59.5 ± 2.2% | 15.3 ± 2.7% | 49 ± 4.2% | 27.1 ± 2.6% |
| UCAAGAGACAUGUAAACCAAA | 72.6 ± 9.2% | 57.3 ± 3.1% | 88 ± 5% | 93.5 ± 18% |
| UCAAGAUACAUGUAAACCAAA | 49.5 ± 14% | 35.7 ± 6.4% | 71.5 ± 9.5% | 58 ± 8.7% |
| UCAAGCAACAUGUAAACCAAA | 72.3 ± 16% | 42.1 ± 6.6% | 82.4 ± 1.3% | 90.9 ± 19% |
| UCAAGCCACAUGUAAACCAAA | 32.6 ± 2.1% | 5.41 ± 1.4% | 30.7 ± 2.4% | 38.4 ± 14% |
| UCAAGCGACAUGUAAACCAAA | 62.6 ± 7.5% | 54.7 ± 1.6% | 83.5 ± 7.6% | 90.4 ± 18% |
| UCAAGCUACAUGUAAACCAAA | 58.8 ± 9.1% | 18.1 ± 1.9% | 63.4 ± 6.2% | 63.6 ± 12% |
